Measured values taken from the BET-seq Pho4 binding data (Le et al. 2018).
The list shows a part of the results. The energies were worked out here from pooled read counts, against the library average; single values are noisy.

target: T1, Pho4 (S. cerevisiae) (UniProt P07270); assay: relative binding free energy (BET-seq); higher = weaker binding; conditions: reference: library average
T1 sequence: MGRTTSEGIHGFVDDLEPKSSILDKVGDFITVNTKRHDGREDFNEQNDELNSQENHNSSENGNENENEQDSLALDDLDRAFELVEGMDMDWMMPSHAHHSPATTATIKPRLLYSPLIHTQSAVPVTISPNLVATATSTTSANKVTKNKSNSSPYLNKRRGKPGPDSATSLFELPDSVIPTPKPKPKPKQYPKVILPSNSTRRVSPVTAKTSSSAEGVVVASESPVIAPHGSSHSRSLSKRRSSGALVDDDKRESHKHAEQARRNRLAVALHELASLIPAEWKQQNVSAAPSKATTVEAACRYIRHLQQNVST

Sequence	relative binding free energy
GGCGCCACGTGGGGTA	-0.23 kcal/mol
GTTCTCACGTGCTGTT	0.28 kcal/mol
AATGTCACGTGTGCGG	0.18 kcal/mol
GCAGACACGTGGGAGG	-0.03 kcal/mol
GGTTTCACGTGGCGGG	0.42 kcal/mol
TCATTCACGTGTATAT	0.17 kcal/mol
TTGAACACGTGTGATT	0.08 kcal/mol
CTTTGCACGTGTGCTG	-0.06 kcal/mol
ACGTACACGTGAGGGT	0.29 kcal/mol
AGCAACACGTGGTTGT	-0.01 kcal/mol
TTGCACACGTGGCGGG	-0.1 kcal/mol
GTATCCACGTGGGTTG	-0.12 kcal/mol
TGTAGCACGTGGGTTA	-0.11 kcal/mol
TCTTACACGTGTGCGT	0.15 kcal/mol
ACGTTCACGTGTGTTC	0.21 kcal/mol
TAAAACACGTGGGGAG	-0.17 kcal/mol
ACTGGCACGTGTTGAG	-0.07 kcal/mol
TTAAGCACGTGTCATG	-0.17 kcal/mol
AGTTACACGTGACGGG	0.35 kcal/mol
GGTGTCACGTGGCTTA	0.18 kcal/mol
GTTGGCACGTGGATGT	-0.02 kcal/mol
ATTTTCACGTGGTCAG	0.23 kcal/mol
AGATGCACGTGCAGGG	-0.14 kcal/mol

Sequence	relative binding free energy
AGTCACACGTGGGGGG	-0.11 kcal/mol
GGGGGCACGTGAGGAT	0.07 kcal/mol
TTGGCCACGTGAGTAT	0.09 kcal/mol
TGGAGCACGTGGGGGT	-0.17 kcal/mol
TTAGTCACGTGAAGAT	0.31 kcal/mol
GTGTACACGTGTGTCT	0.07 kcal/mol
AGAAGCACGTGGCGTA	-0.09 kcal/mol
GTGTGCACGTGCTCTT	0.05 kcal/mol
TGGTTCACGTGCGGGG	0.27 kcal/mol
TGTCGCACGTGAGGTG	0.14 kcal/mol
TGTATCACGTGCTTTA	0.11 kcal/mol
GAGTTCACGTGTAGGT	0.24 kcal/mol
CATAACACGTGGGCGG	0.02 kcal/mol
TTGTTCACGTGAATGC	0.4 kcal/mol
TTAAGCACGTGTTACG	-0.19 kcal/mol
AGGTACACGTGGTGTC	-0.1 kcal/mol
GTACTCACGTGGGTAT	0.05 kcal/mol
ATTATCACGTGTGATG	0.24 kcal/mol
TGATTCACGTGGTGGG	0.24 kcal/mol
TCGGGCACGTGGTCAG	-0.16 kcal/mol
CTTATCACGTGTGAAT	0.25 kcal/mol
ATGCGCACGTGGATAG	-0.1 kcal/mol
TTGATCACGTGTGTAC	0.15 kcal/mol

Sequence	relative binding free energy
AGGAGCACGTGGCATG	-0.2 kcal/mol
ATGATCACGTGGTTTA	0.15 kcal/mol
GTGCTCACGTGATAGG	0.29 kcal/mol
GTTTTCACGTGGCCTT	0.48 kcal/mol
GGTATCACGTGATTTC	0.5 kcal/mol
ATGCGCACGTGTGTGA	-0.24 kcal/mol
CCAGGCACGTGGGTGT	-0.23 kcal/mol
TATGTCACGTGGGATT	0.02 kcal/mol
GGCGACACGTGTGGTT	0.16 kcal/mol
CTACGCACGTGTAGGT	-0.05 kcal/mol
GATGACACGTGAGTGA	0.22 kcal/mol
GGGTGCACGTGACAGT	-0.1 kcal/mol
GGGTTCACGTGTGGCG	0.42 kcal/mol
TTCAGCACGTGGGGTC	-0.19 kcal/mol
GGCGACACGTGTTGGT	0.21 kcal/mol
GTGGACACGTGTTCGT	0.15 kcal/mol
ATTGGCACGTGTGTGT	-0.03 kcal/mol
CGGGACACGTGGGTTC	-0.03 kcal/mol
TTGGGCACGTGGCTTA	-0.27 kcal/mol
GGTATCACGTGTTGTT	0.21 kcal/mol
TGGACCACGTGGATGG	-0.06 kcal/mol
TTAAACACGTGGCGGG	-0.07 kcal/mol
AATTGCACGTGAAAGG	0.26 kcal/mol

Sequence	relative binding free energy
TGTAACACGTGTGAAT	0.14 kcal/mol
GATTTCACGTGAATGA	0.43 kcal/mol
TTATTCACGTGATGCT	0.29 kcal/mol
GGAGACACGTGGTTGT	0.1 kcal/mol
ATCGGCACGTGGTATC	0.13 kcal/mol
GTGTACACGTGGGATG	-0.1 kcal/mol
GTATACACGTGTTAGG	-0.01 kcal/mol
CTATGCACGTGTTTGG	-0.03 kcal/mol
GGCTGCACGTGCGGAG	0.02 kcal/mol
TGGCACACGTGTTATG	0.09 kcal/mol
CGGATCACGTGGTTGA	0.3 kcal/mol
GTATACACGTGGTGGA	0.06 kcal/mol
TGGCGCACGTGGTTTC	-0.12 kcal/mol
CTGCGCACGTGTAGTG	-0.19 kcal/mol
CTGTTCACGTGGGTCG	0.02 kcal/mol
TAATGCACGTGTACTG	-0.01 kcal/mol
TGGGCCACGTGTGGGA	0.01 kcal/mol
GTGGACACGTGTCTAG	0.19 kcal/mol
TAAAACACGTGTTCGG	0.1 kcal/mol
ATTTTCACGTGGTAAG	0.26 kcal/mol
GCTGTCACGTGTAGCG	0.17 kcal/mol
AAAGGCACGTGAGCGT	0.12 kcal/mol
GTAGTCACGTGGAGTA	0.08 kcal/mol

Sequence	relative binding free energy
CTGGGCACGTGACTGT	-0.07 kcal/mol
TTTGACACGTGCTGAG	0.04 kcal/mol
TATTTCACGTGTGGCT	0.46 kcal/mol
TAAGACACGTGTTGGT	0.1 kcal/mol
GGTTGCACGTGGAGCT	0.08 kcal/mol
GGGGACACGTGAGAAT	0.49 kcal/mol
TAGGTCACGTGATGTA	0.23 kcal/mol
CATGTCACGTGTTGTC	0.06 kcal/mol
ATAGACACGTGGTGGC	-0.08 kcal/mol
GGGCGCACGTGATTGA	0.09 kcal/mol
TAATGCACGTGTGGGT	0.04 kcal/mol
GGATACACGTGGATGG	0.18 kcal/mol
GCGGTCACGTGGAGTC	0.15 kcal/mol
ATATGCACGTGTGTTT	-0.03 kcal/mol
GCTGTCACGTGGGTCG	0.13 kcal/mol
GTTTGCACGTGATAGG	0.14 kcal/mol
ATGCGCACGTGTGGGT	-0.1 kcal/mol
GCATTCACGTGGGTTA	0.15 kcal/mol
GCATGCACGTGCGGGT	-0.02 kcal/mol
TGATACACGTGGCAGT	-0.08 kcal/mol
GATGCCACGTGTTTAG	0.06 kcal/mol
ATATTCACGTGGTTTT	0.22 kcal/mol
CTGCGCACGTGGTTTG	-0.21 kcal/mol
